Data from PubChem BioAssay AID1508624 (National Center for Advancing Translational Sciences (NCATS), 2021).
Out of some 48,000 compounds screened, about 120 (0.25%) were called active. About 4% were inconclusive and are not listed. The call rests on the fitted dose curve; in most records, active means well fitted activation curve with a large enough effect; inconclusive means small, poorly fitted or top-dose-only effect, or another doubt; inactive means no such curve, though single readings can be large or run the other way. This is one part of the list.

experiment: Primary qHTS for Identification of Small Molecule Activators of Huntingtin-Antisense Promoter Activity; details: HEK293 HTT-AS promoter firefly luciferase reporter (activity 0% = vehicle and -100% = no light), 24 h; series mostly up to 57.5 µM; activity change, positive = activation: at the top concentration; further: nearly all actives have a fitted effect of over 55% in size
In short: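 Firefly luciferase readout (Dual-Glo, 10 min RT) after 24 h, 37 °C compound exposure (final up to 57.5 uM) of HEK293 reporter cells cultured 24 h beforehand; PTC124 at 50 uM final as control inhibitor; activity scaled vehicle 0%, zero RLU -100%.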
Potency means the concentration at half of the fitted maximal effect.

Compound	activity change, positive = activation	Potency
Cc1cccc(Cn2cccc2CNS(=O)(=O)c2ccccc2F)c1	inactive: -12.2%	
CCc1ccc(CNC(=O)Cn2nc(C)n3c(cc4cc(C)ccc43)c2=O)cc1	inactive: -6.06%	
COc1ccc(NC(=O)C(Cc2ccccc2)NS(=O)(=O)c2ccc3c(c2)CCC(=O)N3)c(OC)c1 (centres undefined)	inactive: -15.6%	
CCOc1ccccc1CNC(=O)C1CCN(c2nnc(-n3c(C)ccc3C)s2)CC1	inactive: 6.68%	
CCCCOc1ccc(C2=NC(c3ccncc3)=Nc3ccc(OCC)cc3N2)cc1	inactive: 1.2%	
O=C(Cn1c(=O)n(CC2CCC(C(=O)NCCc3ccccc3)CC2)c(=O)c2ccccc21)Nc1ccccc1 (centres undefined)	inactive: -21.7%	
COc1ccc2sc(N(Cc3cccnc3)C(=O)C3CCCCC3)nc2c1	inactive: -22.5%	
Cc1nn(-c2ccc(F)cc2)c(-n2cccc2)c1C(=O)NCCc1ccc(Cl)cc1	inactive: -39.7%	
Cc1ccc2c(Cl)cc(Cl)c(O)c2n1	inactive: 2.01%	
Cc1cc(C)n2nc(CNS(=O)(=O)c3ccc(C)c(C)c3)nc2n1	inactive: -6.56%	
CC(C)OCCCn1c(SCC(=O)c2ccccc2)nc2c(sc3ccccc32)c1=O	inactive: -10.7%	
COc1ccc(NC(=O)CSc2nc3nc(C)c(Cc4ccccc4)c(C)n3n2)cc1OC	inactive: -27%	
O=C(C1CCN(S(=O)(=O)c2cccc3nonc23)CC1)N1CCN(c2cccc(Cl)c2)CC1	inactive: -34.5%	
Cc1ccc(Cn2c(=O)c3ccccc3n3c(-c4cccc(O)c4)nnc23)cc1	inactive: -20.2%	
CCN(CC)CCOC(=O)c1ccc(NC(=O)Cn2ncc3c2-c2cc(C)ccc2OC3)cc1	inactive: -21.1%	
Cc1nc2sccn2c(=O)c1S(=O)(=O)Nc1cc(Cl)ccc1O	inactive: -14.1%	
CCOC(=O)c1cc(-c2ccc(F)cc2)n(CC(=O)NC2CCCCCC2)c1C	inactive: -20.6%	
COc1ccc(NC(=O)c2c(NC(=O)COc3ccccc3)sc3c2CCC(C(C)(C)C)C3)cc1 (centres undefined)	inactive: -12%	
Cc1ccc(CN(Cc2ccco2)C(=O)c2ccc(OCC(C)C)cc2)cc1	inactive: -24.1%	
CCCCN1CCc2nc(Nc3ccc(OC)cc3OC)ncc2C1	inactive: -0.0263%	
Cc1ccc(C)c(N2CCN(C(=O)c3cc4c(=O)n(Cc5ccccc5)ccc4nc3C)CC2)c1	inactive: -13%	
Cc1ccc2c(c1)N(C(=O)N1CCC(C(=O)NCCc3ccc(Cl)cc3)CC1)CC(C)O2 (centres undefined)	inactive: -14.2%	
CCOc1cccc2c1N[C@@H](c1ccc(C(=O)O)cc1)[C@H]1CC=C[C@@H]21	inactive: 2.6%	
Cc1cccc(NS(=O)(=O)c2ccc3[nH]c4c(c3c2)CCCCCC4)c1	inactive: -41.1%	

Compound	activity change, positive = activation	Potency
Cc1ccc(-n2nc(C)c3c(C)c(CCC(=O)NCc4ccccc4Cl)c(C)nc32)cc1C	inactive: -8.7%	
COc1ccc(CCNC(=O)c2ccc3c(c2)N(Cc2ccc(F)cc2)C(=O)CS3)cc1OC	inactive: -36%	
Cc1cccc(-c2nc(CCNC(=O)Cc3ccccc3)cs2)c1	inactive: -13.2%	
COc1ccc(OC)c(NC(=O)CSc2ccc(-c3sc(C)nc3C)nn2)c1	inactive: -25.9%	
O=C(COc1ccc(Cl)cc1)Nc1ccc2nc(SCC(=O)N3CCCC3)sc2c1	inactive: -28.3%	
Cc1nn(C(=O)c2cccc(Cl)c2)c(C)c1S(=O)(=O)N1CCOCC1	inactive: -14.7%	
COc1ccc(CCNC(=O)C(=O)NCC(c2ccco2)S(=O)(=O)c2cccs2)cc1OC (centres undefined)	inactive: -10.7%	
CCC(=O)N1CCc2cc(S(=O)(=O)NC(CC(C)C)C(=O)NCCc3ccccc3)ccc21 (centres undefined)	inactive: -13.6%	
O=C(c1nc(-c2ccc(Cl)cc2)n2c1CCCCC2)N1CCN(c2ccccc2)CC1	inactive: -53.6%	
CCOC(=O)c1c(-c2ccccc2)oc2ccc(N(C(C)=O)S(=O)(=O)c3ccc(CC)cc3)cc12	inactive: -22%	
OC(CCN1CCCCC1)(c1ccccc1)C1CCCCC1 (centres undefined)	inactive: -10.6%	
O=C(COc1ccccc1-c1nc(-c2ccccc2)no1)Nc1cccc([N+](=O)[O-])c1	inactive: -10.9%	
COc1cccc(CNC(=O)c2ccc(-c3nc(COc4ccccc4)c(C)o3)cc2)c1	inactive: -3.95%	
Cc1ccc(CCNC(=O)c2cc3c(s2)-c2c(C)cccc2OC3)cc1	inactive: -12%	
CCOc1ccc(C2CC(c3c(O)n(C4CCCCC4)c(=O)[nH]c3=O)=Nc3ccccc3S2)cc1 (centres undefined)	inactive: -65.4%	
Cc1ccc2nc(COc3ccccc3NC(=O)C(C)(C)C)cc(=O)n2c1	inactive: -10.7%	
O=C(Nc1sc2c(c1C(=O)NCc1cccnc1)CCCC2)c1cc(=O)c2ccccc2o1	inactive: 13.3%	
Cc1ccc(NS(=O)(=O)c2ccc(-n3cccn3)cc2)cc1Cl	inactive: -31.8%	
O=C(Cc1ccc(F)cc1)NCc1ccc2c(c1)CCN2C(=O)c1ccc(F)cc1	inactive: -21.6%	
CCOC(=O)N1CCc2c(sc3c2c(=O)n(-c2ccccc2C(F)(F)F)c(=O)n3Cc2ccccc2C)C1	inactive: -44%	
COc1cccc(-n2c(SCC(=O)Nc3c(C)cc(C)cc3C)nc3c([nH]c4ccccc43)c2=O)c1	inactive: -35.8%	
COc1cccc2c1cc1c(=O)n(CC(=O)NCc3ccc(C)o3)nc(C)n12	inactive: -3.45%	
O=C(Nc1c(C(=O)N2CCC(N3CCCCC3)CC2)oc2ccccc12)c1c(F)cccc1F	inactive: -9.19%	
Cn1cc(S(=O)(=O)c2ccccc2)c(=O)c2cc(F)c(N3CCN(c4ccc(F)cc4)CC3)cc21	inactive: -18.3%	

Compound	activity change, positive = activation	Potency
Cc1ccc(-c2nnc(Nc3ccc(Cl)cc3)c3ccccc23)cc1S(=O)(=O)N1CCOCC1	inactive: -16.5%	
CN(C)S(=O)(=O)c1ccc2c(c1)N(CC(=O)N1CCCCC1)CCS2	inactive: -7.7%	
CCCCOc1c(C(=O)c2c(F)cc(C)cc2F)cnc2n[nH]cc12	inactive: -18.1%	
COc1ccc(CNC(=O)CCc2nc3cccnc3n2Cc2ccccc2)cc1	inactive: -2.76%	
Cc1ccc(Cl)cc1N1CCN(C(=O)c2cn(C)c3ccc(S(=O)(=O)N(C)C4CCCCC4)cc3c2=O)CC1	inactive: 0.244%	
CCOc1ccc(CCNC(=O)C(C)n2nc(C)n3c(cc4occc43)c2=O)cc1OCC (centres undefined)	inactive: -13.3%	
CC(=O)Nc1ccc(NC(=O)C(Cc2ccccc2)N2Cc3ccccc3C2=O)cc1 (centres undefined)	inactive: -18.8%	
Cc1cccc(N2CCN(C(=O)c3c(C)oc4nc(C)nc(N5CCCC5)c34)CC2C)c1 (centres undefined)	inactive: -27.4%	
Cc1ccc(NC(=O)Cn2c(=O)n(CCC(=O)NCCc3ccccc3)c(=O)c3ccccc32)cc1	inactive: -5.22%	
O=C(Cn1cnc(S(=O)(=O)N2CCCC2)c1)Nc1ccccc1	inactive: -8.27%	
COc1cccc(-n2c(SCC(=O)N3CCCCC3)nc3c([nH]c4ccccc43)c2=O)c1	inactive: -17.3%	
COc1ccc(NC(=O)c2cc3c([nH]c2=O)CC(c2ccccc2)CC3=O)cc1 (centres undefined)	inactive: -2.55%	
CCCOc1ccc(OC(=O)c2c(-c3ccccc3Cl)noc2C)cc1	inactive: -2.49%	
COc1ccc(NC(=O)Cn2c(=O)n(-c3ccc(CC(=O)NCC4CCCO4)cc3)c(=O)c3ccccc32)c(OC)c1 (centres undefined)	inactive: -9.42%	
COc1ccc(C2=Nn3c(nc4sc(C(=O)Nc5cccc(C)c5)c(C)c4c3=O)SC2)cc1	inactive: -1.68%	
COc1ccc(NC(=O)c2ccc3c(c2)c(C)c(C)n3Cc2ccc(F)cc2)c(OC)c1	inactive: -28.1%	
COc1cccc(CN2C(=O)c3ccccc3Sc3ccc(C(=O)NCCc4ccc(Cl)cc4)cc32)c1	inactive: -7.96%	
COc1ccc(-c2nn3c(-c4ccc(C)cc4)nnc3c3ccccc23)cc1	inactive: -9.1%	
CCc1ccc(OCC(=O)N(Cc2ccco2)Cc2ccco2)cc1	inactive: -8.78%	
COc1ccccc1NC(=O)CCn1nc(-c2ccccc2)c2ccccc2c1=O	inactive: -33%	
O=C(C1CCN(c2nc3ccccc3[nH]2)CC1)N1CCN(c2ccccc2)CC1	inactive: -14.8%	
COc1nc(-c2ccc3c(c2)OCO3)n(-c2ccc(NC(=O)CSc3ccccc3)cc2)n1	inactive: 1.39%	
Cc1cc(C)cc(OCc2cc(=O)n3cc(C)sc3n2)c1	inactive: -6.68%	
Cc1cccc(NCc2nnc3n2CCCCC3)c1C	inactive: -12.7%	

Compound	activity change, positive = activation	Potency
CN(C(=O)c1ccc2c(c1)N(Cc1ccccc1F)C(=O)c1ccccc1S2)C1CCCCC1	inactive: -14.6%	
COc1ccccc1N1CCN(c2nc3ccc(C)cc3nc2-n2nc(C)cc2C)CC1	inactive: -30.1%	
CCOC(=O)c1c(C)n(-c2ccccc2)c2ccc(OC(=O)c3ccc(OCC)c(OCC)c3)cc12	inactive: -26.7%	
Cc1cccc(-c2noc(-c3ccc(NCC4CCCO4)c([N+](=O)[O-])c3)n2)c1 (centres undefined)	inactive: 7.43%	
Cc1ccccc1OCCSc1nc(C)c(Cc2ccccc2)c(=O)[nH]1	inactive: -29.8%	
COc1ccc(-c2nn(C)c3sc(C(=O)N4CCN(c5ccccc5F)CC4)cc23)cc1OC	inactive: -15.9%	
COc1cccc(CNC(=O)C(C)n2ccc3cc(S(=O)(=O)N4CCCCCC4)ccc32)c1 (centres undefined)	inactive: -30.4%	
COc1ccccc1-c1cc(NC(=O)COc2ccccc2Cl)n(-c2ccccc2)n1	inactive: 7.95%	
Cc1ccc(-c2[nH]c3ccccc3c2SCCNC(=O)c2ccc(S(=O)(=O)N3CCOCC3)cc2)cc1	inactive: -28%	
Cc1cccc2c1-c1sc(C(=O)NCCc3ccc(Cl)cc3)cc1CO2	inactive: -23.3%	
Cc1ccc(C)c(CN2C(=O)c3ccccc3Sc3ccc(C(=O)NCc4cccs4)cc32)c1	inactive: -28.6%	
CC(=O)c1cccc(NC(=O)c2noc3c2CSc2ccccc2-3)c1		active: 1410 nM
COc1ccc(NC(=O)c2c(N)c(C(=O)c3ccc(C)cc3)n3ccccc23)cc1OC	inactive: 10.8%	
Cc1cc(C)c2c(-n3cccc3)c(C(=O)NCCCN3CCCCC3)sc2n1	inactive: -9.01%	
Cc1ccc(C)c(NC(=O)C2CCN(c3nn4c(=O)cc(C)nc4s3)CC2)c1	inactive: -7.83%	
CCN1CCN(Cc2nc3cc(NC(=O)c4ccccc4[N+](=O)[O-])ccc3n2CC)CC1	inactive: -8.81%	
COc1ccc(NC(=O)c2ccc3c(c2)c(C)c(C)n3Cc2ccc(F)cc2)cc1	inactive: -36.7%	
O=C(CCc1ccccc1)NCCc1csc(-c2cccc(F)c2)n1	inactive: -11.9%	
Cc1cc(C)cc(NC(=O)CN2C(=O)COc3ccc(S(=O)(=O)Nc4ccccc4)cc32)c1	inactive: -26.8%	
Cc1cn(C)c(CC(=O)NCc2ccc(F)cc2)c1C(=O)O	inactive: -9.19%	
COc1ccc2c(c1)c1c(c(=O)n(-c3cccc(C)c3)c(=O)n1CC(=O)Nc1c(C)cc(C)cc1C)n2C	inactive: -5.39%	
CCc1cccc(NC(=O)CNS(=O)(=O)c2ccc3nc(C)sc3c2)c1	inactive: -9.39%	
